# Experimental data reported in the supplement of paper PMC8728848.
# The list shows a part of the results.
# Experiments:
# Experiment in all cases: glycan array binding signal (z-score within array); higher = stronger binding
# Details in all cases: glycan notation: IUPAC condensed, linker removed
# [1] = molecular target: Fuc(a1-2)[GalNAc(a1-3)]Gal(b1-3)GlcNAc(b1-2)Man(a1-3)[Fuc(a1-2)[GalNAc(a1-3)]Gal(b1-3)GlcNAc(b1-2)Man(a1-6)]Man(b1-4)GlcNAc(b1-4)GlcNAc
# Outline: (§1)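 The Consortium for Functional Glycomics database supplied 3228 glycan arrays, of which those lacking an available protein sequence were dropped. The binding signal, a within-array Z-score, was averaged across arrays of the same protein sequence and across linkers. Negative scores can be read as non-binding.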
# [2] = molecular target: Fuc(a1-2)[GalNAc(a1-3)]Gal(b1-3)GlcNAc(b1-2)Man(a1-3)[Fuc(a1-2)[GalNAc(a1-3)]Gal(b1-3)GlcNAc(b1-2)Man(a1-6)]Man(b1-4)GlcNAc(b1-4)[Fuc(a1-6)]GlcNAc
# Outline: as §1
# [3] = molecular target: Fuc(a1-2)[GalNAc(a1-3)]Gal(b1-3)GlcNAc(b1-3)GalNAc
# Outline: as §1
# [4] = molecular target: Fuc(a1-2)[GalNAc(a1-3)]Gal(b1-3)GlcNAc(b1-6)GalNAc
# Outline: as §1
# [5] = molecular target: Fuc(a1-2)[GalNAc(a1-3)]Gal(b1-4)Glc
# Outline: as §1
# [6] = molecular target: Fuc(a1-2)[GalNAc(a1-3)]Gal(b1-4)GlcNAc
# Outline: as §1
# [7] = molecular target: Fuc(a1-2)[GalNAc(a1-3)]Gal(b1-4)GlcNAc(b1-2)Man(a1-3)[Fuc(a1-2)[GalNAc(a1-3)]Gal(b1-4)GlcNAc(b1-2)Man(a1-6)]Man(b1-4)GlcNAc(b1-4)GlcNAc
# Outline: as §1
# [8] = molecular target: Fuc(a1-2)[GalNAc(a1-3)]Gal(b1-4)GlcNAc(b1-2)Man(a1-3)[Fuc(a1-2)[GalNAc(a1-3)]Gal(b1-4)GlcNAc(b1-2)Man(a1-6)]Man(b1-4)GlcNAc(b1-4)[Fuc(a1-6)]GlcNAc
# Outline: as §1
# [9] = molecular target: Fuc(a1-2)[GalNAc(a1-3)]Gal(b1-4)GlcNAc(b1-3)Gal(b1-4)GlcNAc
# Outline: as §1
# [10] = molecular target: Fuc(a1-2)[GalNAc(a1-3)]Gal(b1-4)GlcNAc(b1-3)Gal(b1-4)GlcNAc(b1-3)Gal(b1-4)GlcNAc
# Outline: as §1
# [11] = molecular target: Fuc(a1-2)[GalNAc(a1-3)]Gal(b1-4)GlcNAc(b1-3)GalNAc
# Outline: as §1
# [12] = molecular target: Fuc(a1-2)[GalNAc(a1-3)]Gal(b1-4)[Fuc(a1-3)]GlcNAc
# Outline: as §1
# [13] = molecular target: Fuc(a1-2)[GalNAc(a1-3)]Gal(b1-4)[Fuc(a1-3)]GlcNAc(b1-3)GalNAc
# Outline: as §1
# [14] = molecular target: Fuc(a1-2)[GalNAc(a1-4)]Gal(b1-4)GlcNAc
# Outline: as §1
# [15] = molecular target: Fuc(a1-2)[GalNAc(b1-3)]Gal
# Outline: as §1
# Fuc(a1-3)GlcNAc = molecular target: Fuc(a1-3)GlcNAc
# Outline: as §1
# [16] = molecular target: Fuc(a1-3)[Gal(b1-4)]Glc6S
# Outline: as §1
# [17] = molecular target: Fuc(a1-3)[Gal(b1-4)]GlcNAc
# Outline: as §1
# [18] = molecular target: Fuc(a1-3)[Gal(b1-4)]GlcNAc(b1-2)Man
# Outline: as §1
# [19] = molecular target: Fuc(a1-3)[Gal(b1-4)]GlcNAc(b1-2)Man(a1-3)[Fuc(a1-3)[Gal(b1-4)]GlcNAc(b1-2)Man(a1-6)]Man(b1-4)GlcNAc(b1-4)GlcNAc
# Outline: as §1
# [20] = molecular target: Fuc(a1-3)[Gal(b1-4)]GlcNAc(b1-2)Man(a1-3)[Fuc(a1-3)[Gal(b1-4)]GlcNAc(b1-2)Man(a1-6)]Man(b1-4)GlcNAc(b1-4)[Fuc(a1-6)]GlcNAc
# Outline: as §1
# [21] = molecular target: Fuc(a1-3)[Gal(b1-4)]GlcNAc(b1-3)Gal(b1-3)[Fuc(a1-4)]GlcNAc
# Outline: as §1
# [22] = molecular target: Fuc(a1-3)[Gal(b1-4)]GlcNAc(b1-3)GalNAc
# Outline: as §1
# [23] = molecular target: Fuc(a1-3)[Gal(b1-4)]GlcNAc(b1-4)Gal(b1-4)[Fuc(a1-3)]GlcNAc
# Outline: as §1
# [24] = molecular target: Fuc(a1-3)[Gal(b1-4)]GlcNAc(b1-4)Gal(b1-4)[Fuc(a1-3)]GlcNAc(b1-4)Gal(b1-4)[Fuc(a1-3)]GlcNAc
# Outline: as §1
# [25] = molecular target: Fuc(a1-3)[Gal(b1-4)]GlcNAc(b1-6)GalNAc
# Outline: as §1
# [26] = molecular target: Fuc(a1-3)[Gal(b1-4)]GlcNAc(b1-6)[Gal(b1-3)GlcNAc(b1-3)]Gal(b1-4)Glc
# Outline: as §1
# [27] = molecular target: Fuc(a1-3)[Gal(b1-4)]GlcNAc(b1-6)[Neu5Ac(a2-3)Gal(b1-3)]GalNAc
# Outline: as §1
# [28] = molecular target: Fuc(a1-3)[Gal(b1-4)]GlcNAc6S
# Outline: as §1
# [29] = molecular target: Fuc(a1-3)[Gal3S(b1-4)]GlcNAc
# Outline: as §1
# [30] = molecular target: Fuc(a1-3)[Gal3S(b1-4)]GlcNAc6S
# Outline: as §1
# [31] = molecular target: Fuc(a1-3)[GalNAc(b1-4)]GlcNAc
# Outline: as §1
# [32] = molecular target: Fuc(a1-3)[GalNAc(b1-4)]GlcNAc6S
# Outline: as §1
# [33] = molecular target: Fuc(a1-3)[GalNAc3S(b1-4)]GlcNAc
# Outline: as §1
# Fuc(a1-4)GlcNAc = molecular target: Fuc(a1-4)GlcNAc
# Outline: as §1
# Fuc(b1-3)GlcNAc = molecular target: Fuc(b1-3)GlcNAc
# Outline: as §1
# Gal(a1-2)Gal = molecular target: Gal(a1-2)Gal
# Outline: as §1
# Gal(a1-3)Gal = molecular target: Gal(a1-3)Gal
# Outline: as §1
binder,measurement,setting,value
"ArathEULS3 (Arabidopsis thaliana), Q945P1 (protein) MEHHHQHHRHHQRDDGEDDRQSFGVPPPHVDAPPQPHGLYQSQPHFDPYAPTPQAPAPYRSETQFEPHAPPPYRSEPYFETPAPPPSFGHVSHVGHQSPNESYPPEHHRYGGYQQPSNSLLESHGDHSGVTHVAHHSSNQPQSSSGVYHKPDENRLPDNLAGLAGRATVKVYSKAEPNYNLTIRDGKVILAPADPSDEAQHWYKDEKYSTKVKDADGHPCFALVNKATGEAMKHSVGATHPVHLIRYVPDKLDESVLWTESKDFGDGYRTIRMVNNTRLNVDAYHGDSKSGGVRDGTTIVLWDWNKGDNQLWKIFPFILEQKLISEEDLNSAVDHHHHHH",glycan array binding signal (z-score),[1],-0.234
same,glycan array binding signal (z-score),[2],0.059
same,glycan array binding signal (z-score),[3],0.052
same,glycan array binding signal (z-score),[4],0.192
same,glycan array binding signal (z-score),[5],-0.163
same,glycan array binding signal (z-score),[6],-0.305
same,glycan array binding signal (z-score),[7],0.76
same,glycan array binding signal (z-score),[8],-0.297
same,glycan array binding signal (z-score),[9],-0.112
same,glycan array binding signal (z-score),[10],-0.168
same,glycan array binding signal (z-score),[11],-0.012
same,glycan array binding signal (z-score),[12],-0.293
same,glycan array binding signal (z-score),[13],7.35
same,glycan array binding signal (z-score),[14],-0.267
same,glycan array binding signal (z-score),[15],-0.14
same,glycan array binding signal (z-score),Fuc(a1-3)GlcNAc,-0.165
same,glycan array binding signal (z-score),[16],-0.202
same,glycan array binding signal (z-score),[17],-0.284
same,glycan array binding signal (z-score),[18],-0.038
same,glycan array binding signal (z-score),[19],-0.258
same,glycan array binding signal (z-score),[20],-0.168
same,glycan array binding signal (z-score),[21],0.096
same,glycan array binding signal (z-score),[22],-0.125
same,glycan array binding signal (z-score),[23],-0.194
same,glycan array binding signal (z-score),[24],1.15
same,glycan array binding signal (z-score),[25],0.939
same,glycan array binding signal (z-score),[26],-0.174
same,glycan array binding signal (z-score),[27],0.65
same,glycan array binding signal (z-score),[28],0.041
same,glycan array binding signal (z-score),[29],-0.26
same,glycan array binding signal (z-score),[30],0.59
same,glycan array binding signal (z-score),[31],-0.04
same,glycan array binding signal (z-score),[32],-0.175
same,glycan array binding signal (z-score),[33],0.524
same,glycan array binding signal (z-score),Fuc(a1-4)GlcNAc,-0.064
same,glycan array binding signal (z-score),Fuc(b1-3)GlcNAc,-0.231
same,glycan array binding signal (z-score),Gal(a1-2)Gal,-0.248
same,glycan array binding signal (z-score),Gal(a1-3)Gal,-0.332
